# Laboratory results reported in publication PMC4336329 (PLoS ONE, 2015).
# Among all 310,000 compounds or so, about 2,200 (0.71%) showed an effect of 50% or more. The effect is printed as a negative number. The list shows a part of the results.
# Target: human ether-à-go-go-related gene (hERG) potassium channel (human, UniProt Q12809)
# Experiment: primary screen, population patch clamp on CHO cells stably expressing hERG
# Chain of human ether-à-go-go-related gene (hERG) potassium channel (Q12809 whole entry, looked up): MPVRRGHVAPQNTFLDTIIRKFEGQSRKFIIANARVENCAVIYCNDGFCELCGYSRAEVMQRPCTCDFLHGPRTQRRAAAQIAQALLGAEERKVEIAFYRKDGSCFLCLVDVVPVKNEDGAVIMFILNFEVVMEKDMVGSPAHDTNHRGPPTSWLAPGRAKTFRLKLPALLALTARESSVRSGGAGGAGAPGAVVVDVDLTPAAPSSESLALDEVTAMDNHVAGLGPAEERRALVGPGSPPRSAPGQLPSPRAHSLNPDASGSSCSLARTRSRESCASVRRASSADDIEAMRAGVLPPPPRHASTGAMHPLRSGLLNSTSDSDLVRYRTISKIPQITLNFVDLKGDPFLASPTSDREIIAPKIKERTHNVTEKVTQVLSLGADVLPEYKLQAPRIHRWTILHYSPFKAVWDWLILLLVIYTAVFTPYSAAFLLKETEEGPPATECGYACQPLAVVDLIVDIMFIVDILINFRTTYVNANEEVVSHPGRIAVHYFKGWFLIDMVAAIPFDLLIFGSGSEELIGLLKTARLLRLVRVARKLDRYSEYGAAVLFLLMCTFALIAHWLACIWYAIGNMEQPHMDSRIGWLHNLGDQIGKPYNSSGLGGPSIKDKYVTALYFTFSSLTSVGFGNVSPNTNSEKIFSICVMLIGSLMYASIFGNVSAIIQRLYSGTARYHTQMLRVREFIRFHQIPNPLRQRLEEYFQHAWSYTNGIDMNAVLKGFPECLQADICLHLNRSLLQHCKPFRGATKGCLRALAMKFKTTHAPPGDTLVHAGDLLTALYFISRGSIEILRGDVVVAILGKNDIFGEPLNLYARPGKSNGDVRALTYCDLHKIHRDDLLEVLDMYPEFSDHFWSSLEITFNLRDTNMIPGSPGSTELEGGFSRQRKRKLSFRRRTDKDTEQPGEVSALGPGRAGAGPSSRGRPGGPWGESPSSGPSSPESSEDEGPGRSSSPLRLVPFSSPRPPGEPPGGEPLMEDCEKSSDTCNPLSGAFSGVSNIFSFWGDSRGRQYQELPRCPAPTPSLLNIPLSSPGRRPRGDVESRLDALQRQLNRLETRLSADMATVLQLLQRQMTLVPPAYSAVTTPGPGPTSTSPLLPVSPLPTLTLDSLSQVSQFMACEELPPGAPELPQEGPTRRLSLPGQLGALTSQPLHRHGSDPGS
row,Structure (SMILES),"hERG current change (%, negative = inhibition) at 1uM"
1,CC(/C=N/NC(=O)CNc1n[nH]c(=O)[nH]c1=O)c1ccccc1 (centres unmarked),2.65%
2,COc1ccc(CNC(=O)CCCCCn2c(SCC#N)nc3cc4c(cc3c2=O)OCO4)cc1,8.04%
3,Cc1cc(Br)ccc1OCCN1CCCC1.O=C(O)C(=O)O,-7.85%
4,Cc1cccc(NS(=O)(=O)c2ccc(Cl)cc2)n1,18.3%
5,O=C1C2CC=CCC2C(=O)N1c1ccc(OCC(O)Cn2nnc3ccccc32)cc1 (centres unmarked),4.09%
6,CN(CCCNC(=O)c1cccc(N2CCCC2=O)c1)c1ccccc1,0.567%
7,Nc1nn2cc(-c3ccc(Br)cc3)nc2c2ccccc12,5.13%
8,Cc1ccc(/C=N/NC(=O)c2ccc(Br)o2)s1,-0.912%
9,CN1CCCN(C(=O)COc2ccc(F)cc2F)CC1,13%
10,CNC(=S)N(CCc1c(C)[nH]c2ccc(Cl)cc12)Cc1cc(OC)c(OC)c(OC)c1,3.8%
11,Cc1ccc(N2CC(C(=O)NNC(=O)c3ccc(F)cc3)CC2=O)cc1 (centres unmarked),-1.31%
12,COc1cc(C)c(C(N)=O)c(OC)n1,14.4%
13,N#CC1=C2N=C(N)c3c(sc4c3CCCCC4)N2C2=C(C(=O)CCC2)C1c1ccccc1 (centres unmarked),8.01%
14,CCc1ccc(C(=O)Cn2ncc(Cl)c(Cl)c2=O)cc1,8.96%
15,COc1cccc(NC(=S)N(C)C2CCN(C)CC2)c1,11%
16,CCCCNC(=O)CNC(=S)N(Cc1ccccc1)Cc1cccs1,-1.02%
17,CCCCc1ccc(NC(=O)c2cnccn2)cc1,7.91%
18,CC(CCc1ccccc1)NC(=O)c1ccc(-n2cncn2)c([N+](=O)[O-])c1 (centres unmarked),-27.2%
19,CSc1nnc([C@H](Cc2c[nH]c3ccccc23)NC(=O)OC(C)(C)C)o1,9.8%
20,Cn1c(CN2CCCC(C(=O)c3ccc4c(c3)OCO4)C2)nc2ccccc21 (centres unmarked),-21.8%

row,Structure (SMILES),"hERG current change (%, negative = inhibition) at 1uM"
1,COC(=O)[C@H](Cc1c[nH]c2ccccc12)NC(=O)Cc1c[nH]c2ccccc12,9.96%
2,FC(F)(F)c1cccc(N2CCN(c3nnnn3-c3ccccc3)CC2)c1,5.28%
3,Clc1ncc2[nH]cnc2n1,13.2%
4,O=C(Cc1ccccc1F)Nc1nc(-c2cccs2)cs1,2.28%
5,C/C(=N\NC(=O)C1CC1)c1cccnc1,9.94%
6,CCP(=S)(CC)c1ccc(N(C)C)cc1,14%
7,C=C(C)[C@@H]1CCC2(C(=O)O)CC[C@]3(C)[C@H](CC[C@@H]4[C@@]5(C)CCC(=O)C(C)(C)[C@@H]5CC[C@]43C)[C@@H]12 (some centres unmarked),6.31%
8,O=C(C1CCCN(c2ncnc3c2nc2n3CCCCC2)C1)N1CCN(c2ccccc2)CC1 (centres unmarked),-14.1%
9,NS(=O)(=O)c1ccc(Sc2ccc3c(c2)CCC3)nc1,13.9%
10,OCC1(CCOc2ccccc2)CCN(Cc2cc(Cl)ccc2O)CC1,-0.875%
11,COC(=O)c1ccccc1NC(=O)c1cnn2c(C(F)F)cc(C3CC3)nc12,7.98%
12,CC1C=CC(C)C(C(=O)O)C1C(=O)O (centres unmarked),17.3%
13,COc1cccc(NC=C2C(=O)OC(C)(C)OC2=O)c1,-3.51%
14,O=C(c1ccco1)N1CCN(Cc2c(F)cccc2Cl)CC1,4.47%
15,Cc1nc(NC(=O)c2ccccc2)sc1-c1csc(Nc2cccc(F)c2)n1,11%
16,O=C(c1ccccc1)N(Cc1ccccc1)Cc1ccccc1,9.35%
17,COc1cc(NS(=O)(=O)c2ccc(N/C=C\C(=O)c3ccc(OC)c(OC)c3)cc2)nc(OC)n1,11.4%
18,CCN(CC)S(=O)(=O)c1ccc2c(c1)nc(SCC(=O)N(C)C1CCS(=O)(=O)C1)n2CC (centres unmarked),8.33%
19,CCOc1ccc(-c2nnc(-c3ccccc3)n2-c2ccccc2)cc1,-3.47%
20,CCC1C(=O)NCCN1C(=O)c1ccc(OC)c(OC2CCN(C(C)=O)CC2)c1 (centres unmarked),11.7%

row,Structure (SMILES),"hERG current change (%, negative = inhibition) at 1uM"
1,CC(C)Oc1ccc(C(CC(=O)O)c2ccc(F)cc2)cc1 (centres unmarked),8.35%
2,Cc1cc(C(N)=O)c2cc(Br)ccc2n1,7.63%
3,Cc1onc(-c2ccccc2Cl)c1C(=O)NC1CCS(=O)(=O)C1 (centres unmarked),3.87%
4,Cc1ccc([N+](=O)[O-])cc1N(CC(=O)NC1CCCC1)S(C)(=O)=O,17.8%
5,CC1CN(C(=S)c2cccc([N+](=O)[O-])c2)CC(C)O1 (centres unmarked),8.72%
6,COCCNC(=O)CCc1nnc(C2(c3ccc(Cl)cc3)CCC2)o1,16.3%
7,CCCCc1cc(=O)oc2c3c(cc(OCC(=O)NCCCO)c12)OC(C)(C)CC3,8.46%
8,O=C(CSc1nc2c(c(=O)[nH]1)CCC2)Nc1ccccc1Cl,2.71%
9,Cc1ccc(C(=O)OCC(=O)NC2CCCC2)cc1,14.6%
10,O=C(c1ccc(CNS(=O)(=O)c2ccc(Br)cc2)cc1)N1CCCCC1,14%
11,NS(=O)(=O)c1cccc(NC(=O)CN2CCc3ccccc32)c1,11.8%
12,Cc1cc(OCc2cc(C(=O)NCc3csc(C(C)C)n3)no2)cc(C)c1Cl,6.13%
13,CC1(C)CC(=O)C=C(NCc2ccco2)C1,5.26%
14,O=C(NCCc1ccc(F)cc1)c1ccncc1,5.58%
15,Cc1ccccc1OCC(=O)NNC(=O)CCN1C(=O)c2ccccc2C1=O,5.62%
16,c1cnc2cc(-c3ccsc3)ncc2c1,11.9%
17,COc1cccc(OC)c1OCCCOc1ccc(C)cc1Br,14.8%
18,COc1ccccc1CCNC(=O)C(=O)NCC1OCCN1S(=O)(=O)c1ccccc1 (centres unmarked),7.32%
19,CC(C)c1ccc(NC(=O)CSc2nnc(OC(=O)N(C)C)n2C2CC2)cc1,5.72%
